According to PubChem BioAssay AID504832 (National Center for Advancing Translational Sciences (NCATS), 2011):
Screen size: about 310,000 compounds; about 18,000 (5.8%) were called active. This list was built around the results that the source calls inconclusive (neither active nor inactive); the mix of calls is not that of the screen. Calls come from the whole dose curve; as a rule, active = well fitted inhibition curve with a large enough effect; inconclusive = small, poorly fitted or top-dose-only effect, or another doubt; inactive = no such curve, though single readings can be large or run the other way. Potencies of inconclusive entries are left out as doubtful fits.

Test: Primary qHTS for delayed death inhibitors of the malarial parasite plastid, 48 hour incubation
Conditions: P. falciparum luciferase growth in erythrocytes; series mostly up to 28.7 µM; activity change, negative = inhibition: at the top concentration
In short: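 Parasite viability was followed by luminescence of a genomically integrated firefly luciferase. Cultures held 0.1% parasitemia at 2% hematocrit (final), incubated under 5% CO2 at 37 C.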
% is set by controls: 0 for no effect and ±100 for the full control effect; potency is the fitted concentration of half-maximal effect; tags give direction and shape of the fitted curve.

| SMILES | activity change, negative = inhibition | Potency |
| --- | --- | --- |
| CC(C)N(C(=O)Cn1c(=O)oc2ccccc21)c1ccccc1 | inactive: -18.1% | – |
| COC(=O)[C@H](CC(C)C)NC(=O)c1cc2c(cn1)[nH]c1ccccc12 | – | inconclusive [inhibitor, single point] |
| CC(=O)Nc1nc2ccccc2n1CCOc1ccccc1 | – | inconclusive [inhibitor, single point] |
| CCc1nnc(NC(=O)c2ccc(S(=O)(=O)N3CCOCC3)cc2)s1 | inactive: -7.76% | – |
| Cc1cc2c(cc(C(=O)OCC(=O)NCc3cccs3)n2C(C)C)o1 | – | inconclusive [inhibitor, single point] |
| O=C1CC2(CCN(C(=O)c3ccc(F)c(F)c3)CC2)Oc2ccccc21 | inactive: 0.0762% | – |
| CCn1c(SCC(=O)NC2CCCCC2)nnc1-c1ccco1 | inactive: 18.1% | – |
| Cc1ccc(C)n1-c1cccc(C(=O)Nc2ccccc2)c1 | – | inconclusive [inhibitor, single point] |
| CCNC(=O)C1CC(=O)N(c2ccc(OCC)cc2)C1 (configuration not stated) | – | inconclusive [inhibitor, single point] |
| COCCCn1c(C2CCCCC2)nc2oc3cc(OC)ccc3c(=O)c2c1=O | – | inconclusive [inhibitor, partial curve] |
| Cc1cc(C)n2nc(SCc3ccccc3F)nc2n1 | inactive: -0.597% [at 0.00184 µM] | – |
| CCCCNS(=O)(=O)c1cc(-c2nn(C)c(=O)c3ccccc23)ccc1C | – | active: 13.1 µM |
| CCn1cc(C(=O)O)c(=O)c2cc(F)c(N3CCN(C(=S)NC(=O)c4ccccc4Cl)CC3)cc21 | – | active: 5.22 µM |
| Cc1cc(C)c(C(=O)NC2CCCc3c2cnn3-c2cccc(C)c2C)o1 (configuration not stated) | – | inconclusive [inhibitor, partial curve] |
| O=C(Nc1ccc(O)cc1)/C(=C\C=C\c1ccccc1)NC(=O)c1ccccc1 | inactive: 5.65% | – |
| COc1ccc(C(=O)COC(=O)C(CC(C)C)N2C(=O)c3ccccc3C2=O)cc1 (configuration not stated) | inactive: -1.17% | – |
| CCC(C(=O)Nc1ccccc1F)n1nc(C)c2c(C)n(-c3ccccc3)nc2c1=O (configuration not stated) | – | inconclusive [inhibitor, partial curve] |
| COc1ccc(C2(c3ccc(OC)cc3)NC(=O)N(CC(=O)Nc3ccccc3)C2=O)cc1 | – | inconclusive [inhibitor, single point] |
| COc1ccc(OC)c(CNC(=O)C2CCCN(S(=O)(=O)N3CC(C)CC(C)C3)C2)c1 (configuration not stated) | – | inconclusive [inhibitor, partial curve, poor fit] |
| Cc1c(Br)ccc(NC(=O)CCN2C(=O)C3C4CCC(C4)C3C2=O)c1C (configuration not stated) | inactive: 65% | – |
| Cc1c(N2C(=O)/C(=C/c3ccccc3)SC2=S)c(=O)n(-c2ccccc2)n1C | inactive: 47.2% | – |
| CCOC(=O)CCc1c(C)nc(-n2[nH]c(C)c(CCO)c2=O)[nH]c1=O | – | inconclusive [inhibitor, single point] |
| COc1ccccc1-c1coc2c(CN3C(C)CCCC3C)c(O)ccc2c1=O (configuration not stated) | – | inconclusive [inhibitor, partial curve] |

| SMILES | activity change, negative = inhibition | Potency |
| --- | --- | --- |
| CCO[C@H]1OC(C(=O)NCc2nc3ccccc3[nH]2)=C[C@@H](C2CCCCC2)[C@@H]1CCCO | – | inconclusive [inhibitor, partial curve, poor fit] |
| CC(C)OC(=O)c1ccccc1C(=O)c1ccc(N)c([N+](=O)[O-])c1 | – | inconclusive [inhibitor, single point] |
| Cc1ccc(NS(=O)(=O)c2cccc(C(=O)NCCCn3ccnc3)c2)cc1 | – | inconclusive [inhibitor, single point] |
| OC(CNCCc1ccc(C(F)(F)F)cc1)COc1ccc2ccccc2c1 (configuration not stated) | – | inconclusive [inhibitor, single point] |
| CC(=O)N1c2ccc(S(=O)(=O)NCCC(=O)Nc3cccc(Cl)c3)cc2CC1C (configuration not stated) | inactive: -26.3% | – |
| CC(OC(=O)CN1C(=O)c2ccccc2C1=O)C(=O)c1ccccc1 (configuration not stated) | inactive: -17.5% | – |
| CC(=O)Nc1ccc(Nc2nc(C)nc3c2nnn3Cc2ccccc2Cl)cc1 | – | inconclusive [inhibitor, single point] |
| Cc1nc(C)c(-c2csc(NCCc3ccccc3)n2)s1 | – | inconclusive [inhibitor, single point] |
| O=C(c1noc2c1CCCC2)N1CCN(c2ccc(F)cc2)CC1 | – | inconclusive [inhibitor, full curve, poor fit] |
| C=CCNC(=O)N[C@@H](Cc1ccccc1)C(=O)OC | – | inconclusive [inhibitor, partial curve, poor fit] |
| COc1ccc(S(=O)(=O)N2CCCCC2)cc1NC(=O)C1CSC2(C)CCC(=O)N12 (configuration not stated) | – | inconclusive [inhibitor, single point] |
| Clc1ccc(-c2nc(/C=N/N3CCOCC3)c3ccccn23)cc1 | inactive: 61.3% | – |
| Cc1ccc(-c2csc3ncnc(SCC(=O)c4ccc5c(c4)OCCO5)c23)cc1 | inactive: -4.94% | – |
| CC1CCC(C(C)C)C(OC(=O)Cn2c(-c3ccc(Cl)cc3)[n+](C)c3ccccc32)C1 (configuration not stated) | – | inconclusive [inhibitor, full curve] |
| CCc1cc(-c2n[nH]c(=S)n2Cc2ccccc2)cs1 | inactive: 18% | – |
| O=Nc1c(O)n(Cc2cccc(Cl)c2)c2ccccc12 | – | inconclusive [inhibitor, partial curve] |
| CCCCNC(=O)c1ccc(/C=C2\Oc3ccccc3N(C)C2=O)cc1 | – | inconclusive [inhibitor, partial curve] |
| CCCCNC(=S)Nc1ccccc1F | inactive: 13% | – |
| C#CCN1C(=O)C2(C(C#N)=C(N)OC(C)=C2C(=O)OCc2ccccc2)c2ccccc21 (configuration not stated) | – | inconclusive [inhibitor, partial curve, poor fit] |
| CCC(=O)Nc1nc2ccccc2n1Cc1ccccc1 | – | inconclusive [inhibitor, partial curve] |
| Cc1ccc(NC(=O)COC(=O)CN2CCCCCC2=O)cc1C | – | inconclusive [inhibitor, single point] |
| CCCn1c(C(CO)Nc2nc(-c3cccc(Br)c3)cs2)nc2ccccc21 (configuration not stated) | – | inconclusive [inhibitor, partial curve, poor fit] |
| CC(Oc1ccc(Br)cc1)C(=O)NNC(=O)CCN1CCN(c2ccccc2)CC1 (configuration not stated) | – | inconclusive [inhibitor, single point] |

| SMILES | activity change, negative = inhibition | Potency |
| --- | --- | --- |
| Cc1c(N(C(=O)CNC(=O)c2ccccc2)C2(C(=O)NC3CCCC3)CCCCC2)c(=O)n(-c2ccccc2)n1C | – | active: 3.7 µM |
| CCOc1ccc(CNC(=O)CCCc2cn(C)c3ccccc23)cc1 | – | active: 3.7 µM |
| CC(C)(C)c1cc(C(C)(C)C)c2oc(=O)c(-c3nc4ccc(C(=O)O)cc4[nH]3)cc2c1 | – | inconclusive [inhibitor, single point] |
| Cn1c(/C(C#N)=C/C2CC=CCC2)nc2ccccc21 (configuration not stated) | – | inconclusive [inhibitor, single point] |
| Cc1nc2c(sc3nc(N4CCOCC4)c4c(c32)CC(C)(C)OC4)c(-c2ccc(Cl)cc2)c1C(=O)O | – | active: 13.1 µM |
| Cc1sc2nc(CN3CCOCC3)nc(NS(=O)(=O)c3ccc4c(c3)OCCO4)c2c1C | – | inconclusive [inhibitor, single point] |
| CCOc1ccc(-n2c(SCC(=O)Nc3ccc4c(c3)OCCO4)nc3c(c2=O)SCC3)cc1 | – | inconclusive [inhibitor, single point] |
| COC(=O)CCC(=O)OC1(C)C(=O)C=C2C=C(C3CC3)N(CCCCO)C=C2C1=O (configuration not stated) | – | inconclusive [inhibitor, partial curve, poor fit] |
| Cc1ccc(CNc2ccc(O)cc2)cc1 | – | inconclusive [inhibitor, single point] |
| COc1ccc(Cl)cc1C(=O)NNC(=O)c1cccc([N+](=O)[O-])c1 | inactive: 27.5% | – |
| C/C(=N\OCc1nc2ccccc2c(=O)n1/N=C/c1cc([N+](=O)[O-])ccc1O)c1ccccc1 | – | inconclusive [inhibitor, single point] |
| Cc1cnc(C(=O)Nc2ccccc2-c2nnn(CC(=O)NC3CCCC3)n2)cn1 | – | inconclusive [inhibitor, partial curve] |
| CC(C)(C)c1ccc(-c2nc3n(c(=O)c2C#N)CCS3)cc1 | inactive: 13.4% | – |
| CC(C)(C)C1=Nn2c(nnc2-c2ccccc2F)SC1 | – | inconclusive [inhibitor, partial curve, poor fit] |
| COCCNC(=O)C1CCC(CNS(=O)(=O)c2c(C)cc(C)cc2C)CC1 (configuration not stated) | – | inconclusive [inhibitor, partial curve, poor fit] |
| Cc1cc(C)c2[nH]c(=O)c(CN(Cc3cccs3)C(=S)NCC3CCCO3)cc2c1 (configuration not stated) | – | inconclusive [inhibitor, single point] |
| Cc1cccc(-c2c(NC(=O)c3ccco3)oc3ccc(Cl)cc3c2=O)c1 | inactive: 26.5% | – |
| COc1ccc([C@H]2CC(=O)C=C(c3ccnc4ccc(Cl)cc34)C2)cc1 | – | inconclusive [inhibitor, partial curve] |
| CSc1sc(-c2ccnc(SCCS(C)(=O)=O)n2)c(-c2ccccc2)c1C#N | – | inconclusive [inhibitor, partial curve, poor fit] |
| CC(=O)NNC(=O)c1nc(-c2ccccc2)c(C)o1 | – | inconclusive [inhibitor, partial curve, poor fit] |
| O=C(CCl)Nc1nccs1 | – | inconclusive [inhibitor, partial curve, poor fit] |
